Test results as given in the supplement of paper PMC4604168 (melanoma cell lines).
This is one part of the list. Repeats are few or missing, and single values can be far off.

Tests used:
Assay in all cases: cell count relative to DMSO control; melanoma cells; higher = more viable cells
Conditions in all cases: library dose: low library concentration; 72 h
WM115 = tested on: WM115
WM1716 = tested on: WM1716
WM1745 = tested on: WM1745
WM3526 = tested on: WM3526
WM3619 = tested on: WM3619
WM451Lu = tested on: WM451Lu
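Further: cell number obtained by counting DAPI-stained nuclei in high-throughput microscope images with image analysis software, screen run in 1,536-well plates.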

SMILES	cell count (WM115) [%]	cell count (WM1716) [%]	cell count (WM1745) [%]	cell count (WM3526) [%]	cell count (WM3619) [%]	cell count (WM451Lu) [%]
Cc1cc(Nc2cc(N3CCN(C)CC3)nc(/C=C/c3ccccc3)n2)n[nH]1 + CNC(=O)c1cc(Oc2ccc(NC(=O)Nc3ccc(Cl)c(C(F)(F)F)c3)cc2)ccn1 [sorafenib] (first compound 0.04 µM, partner dose 0.4 µM)	105	103	77.4	105	85.7	83.7
Cn1c(=O)n(-c2ccc(C(C)(C)C#N)cc2)c2c3cc(-c4cnc5ccccc5c4)ccc3ncc21 + O=C(O)c1ccc2c(c1)nc(Nc1cccc(Cl)c1)c1ccncc12 [CX4945] (first compound 0.004 µM, partner dose 0.4 µM)	90.9	92.7	96.3	93	86.5	97.9
Cc1cc(Nc2cc(N3CCN(C)CC3)nc(/C=C/c3ccccc3)n2)n[nH]1 + Cn1cc(/C=C2\C(=O)Nc3cccnc32)c2ccccc21 [GW441756] (first compound 0.04 µM, partner dose 0.4 µM)	83.5	122	84.9	106	109	99.7
CC(C)C[C@H](NC(=O)[C@H](Cc1ccccc1)NC(=O)c1cnccn1)B(O)O [Bortezomib] + O=C(O)c1ccc2c(c1)nc(Nc1cccc(Cl)c1)c1ccncc12 [CX4945] (first compound 0.001 µM, partner dose 0.4 µM)	98.7	29.2	65.2	69.7	13	82.5
Cn1c(=O)n(-c2ccc(C(C)(C)C#N)cc2)c2c3cc(-c4cnc5ccccc5c4)ccc3ncc21 + COc1ccc(Cl)c(Nc2nc3ccccc3nc2NS(=O)(=O)c2cccc(NC(=O)C(C)(C)N)c2)c1 [XL147] (first compound 0.004 µM, partner dose 0.8 µM)	105	76.2	87.8	97.3	96.8	97.7
CC(C)C[C@H](NC(=O)[C@H](Cc1ccccc1)NC(=O)c1cnccn1)B(O)O [Bortezomib] + Cc1nc(Nc2ncc(C(=O)Nc3c(C)cccc3Cl)s2)cc(N2CCN(CCO)CC2)n1 [dasatanib] (first compound 0.001 µM, partner dose 0.004 µM)	83	34.5	68.4	71.4	15.1	32.3
CC(C)C[C@H](NC(=O)[C@H](Cc1ccccc1)NC(=O)c1cnccn1)B(O)O [Bortezomib] + COc1cc(Nc2ncc(F)c(Nc3ccc4c(n3)NC(=O)C(C)(C)O4)n2)cc(OC)c1OC [Tamatinib] (first compound 0.001 µM, partner dose 0.4 µM)	90.8	40.3	32.7	93.5	9.79	90.7
Cc1cc(Nc2cc(N3CCN(C)CC3)nc(/C=C/c3ccccc3)n2)n[nH]1 + COc1ccc2c(c1)CCC1C2CCC2(C)C(NCCCCCCN3C(=O)C=CC3=O)CCC12 [U73122] (first compound 0.04 µM, partner dose 0.4 µM)	93.5	85.7	107	87.2	77.9	88
Cn1c(=O)n(-c2ccc(C(C)(C)C#N)cc2)c2c3cc(-c4cnc5ccccc5c4)ccc3ncc21 + c1cc(-c2cnn3cc(-c4ccc(OCCN5CCCCC5)cc4)cnc23)ccn1 [Dorsomorphin] (first compound 0.004 µM, partner dose 0.4 µM)	95.5	95.9	95.7	72	88.2	95.7
Cc1cn(-c2cc(NC(=O)c3ccc(C)c(Nc4nccc(-c5cccnc5)n4)c3)cc(C(F)(F)F)c2)cn1 [nilotinib] + CC(=O)c1c(C)c2cnc(Nc3ccc(N4CCNCC4)cn3)nc2n(C2CCCC2)c1=O [palbociclib] (first compound 0.2 µM, partner dose 0.04 µM)	89.7	86.9	70.9	83.5	94.1	83.9
Cc1cn(-c2cc(NC(=O)c3ccc(C)c(Nc4nccc(-c5cccnc5)n4)c3)cc(C(F)(F)F)c2)cn1 [nilotinib] + Cn1cncc1[C@@](N)(c1ccc(Cl)cc1)c1ccc2c(c1)c(-c1cccc(Cl)c1)cc(=O)n2C [tipifarnib] (first compound 0.2 µM, partner dose 0.01 µM)	103	76.7	105	82.4	136	105
COc1ccc(C2=N[C@@H](c3ccc(Cl)cc3)[C@@H](c3ccc(Cl)cc3)N2C(=O)N2CCNC(=O)C2)c(OC(C)C)c1 [Nutlin-3] + COCC[n+]1c2c(n(Cc3cnccn3)c1C)C(=O)c1ccccc1C2=O [YM155] (first compound 0.1 µM, partner dose 0.0004 µM)	95.7	93.9	93.1	98.2	95.1	78.7
Cc1cc(Nc2cc(N3CCN(C)CC3)nc(/C=C/c3ccccc3)n2)n[nH]1 + CO[C@H]1C[C@@H]2CC[C@@H](C)[C@@](O)(O2)C(=O)C(=O)N2CCCC[C@H]2C(=O)O[C@H]([C@H](C)C[C@@H]2CC[C@@H](OCCO)[C@H](OC)C2)CC(=O)[C@H](C)/C=C(\C)[C@@H](O)[C@@H](OC)C(=O)[C@H](C)C[C@H](C)/C=C/C=C/C=C/1C [everolimus] (first compound 0.04 µM, partner dose 0.02 µM)	79.1	87.1	97.5	67.1	77.5	77.7
